# Source: a collection of fitness landscapes (doi:10.1016/j.celrep.2020.107928)
# Whole data set: some 81,000 sequences, median “one-hybrid fitness for binding NBS DNA” near -0.1, cut for the highest 2% near 0.36. Some of the results follow.
# B1: Caulobacter ParB omega fusion; a variant is named by its letters at X, in order, B8GW30 (parent)
# chain: MESVVVGEPGMSEGRRGLGRGLSALLGEVDAAPAQAPGEQLGGSREAPIEILQRNPDQPRRTFREEDLEDLSNSIREKGVLQPILVRPSPDTAGEYQIVAGERAWRAAQRAGLKTVPIMVRELDDLAVLEIGIIENVQRADLNVLEEALSYKVLMEKFERTQENIAQTIGKSXSHVANXMRLLXLPDEVQSYLVSGELTAXHARAIAAAADPVALAKQIIEGGLSVRETEALARKAPNLSAGKSKGGRPPRVKDTDTQALESDLSSVLGLDVSIDHRGSTGTLTITYATLEQLDDLCNRLTRGI
# Variants of: B1
# Assay: one-hybrid fitness for binding NBS DNA (the Noc-binding site; scaled: cognate 1, non-cognate 0); higher = stronger binding
# Conditions: with NBS DNA site
# In short: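 Selection: bacterial one-hybrid in E. coli USO, HIS3 reporter with the site 19 bp from the promoter, 48 hours at 37°C on M9-minus-histidine plus 0.1 mM IPTG and 5 mM 3-AT. Libraries were Caulobacter ParB with four randomised specificity codons, sequenced on Illumina before and after selection. Fitness is the rescaled log change in variant-to-wild-type read ratio, anchored to the cognate and non-cognate sites.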
row,Variant,one-hybrid fitness for binding NBS DNA
1,HCKD,≤ 0.2
2,PAPQ,≤ 0.2
3,CCKA,≤ 0.2
4,HARM,≤ 0.2
5,VRPS,≤ 0.2
6,DENT,≤ 0.2
7,SIVN,≤ 0.2
8,RSMW,≤ 0.2
9,QTAH,0.401
10,AFDC,≤ 0.2
11,AGPT,≤ 0.2
12,MYQW,≤ 0.2
13,CLIG,≤ 0.2
14,VNRC,≤ 0.2
15,VSCR,≤ 0.2
16,DIYR,≤ 0.2
17,MCAR,≤ 0.2
18,SNGY,≤ 0.2
19,RPGL,≤ 0.2
20,CGCC,≤ 0.2
21,QPGQ,≤ 0.2
22,PFVW,≤ 0.2
23,QYEG,≤ 0.2
24,GNNV,≤ 0.2
25,EVQR,≤ 0.2

row,Variant,one-hybrid fitness for binding NBS DNA
1,DWSP,≤ 0.2
2,RESS,≤ 0.2
3,KGHV,≤ 0.2
4,RKTK,≤ 0.2
5,AAGL,≤ 0.2
6,MMKR,≤ 0.2
7,RWNN,≤ 0.2
8,PSTH,≤ 0.2
9,KSYR,≤ 0.2
10,PVGC,≤ 0.2
11,DAIC,≤ 0.2
12,FYRV,≤ 0.2
13,MFAT,≤ 0.2
14,TRTK,≤ 0.2
15,GVHS,≤ 0.2
16,STDN,≤ 0.2
17,RQEM,≤ 0.2
18,RGWG,≤ 0.2
19,VTSM,≤ 0.2
20,APRW,≤ 0.2
21,RRGP,≤ 0.2
22,FYRL,≤ 0.2
23,INKG,≤ 0.2
24,DMPR,≤ 0.2
25,LQVF,≤ 0.2

row,Variant,one-hybrid fitness for binding NBS DNA
1,FQRG,≤ 0.2
2,LEWE,≤ 0.2
3,HSRA,≤ 0.2
4,VNST,≤ 0.2
5,FNTF,≤ 0.2
6,RSSF,≤ 0.2
7,PSRF,≤ 0.2
8,AREV,≤ 0.2
9,IASV,≤ 0.2
10,RRMR,0.723
11,RIMF,≤ 0.2
12,TADE,≤ 0.2
13,SCGG,≤ 0.2
14,PMHY,≤ 0.2
15,FSHF,≤ 0.2
16,DCSL,≤ 0.2
17,VNQS,≤ 0.2
18,NKRA,≤ 0.2
19,IAVM,≤ 0.2
20,SDVT,≤ 0.2
21,KDMS,≤ 0.2
22,QNKW,≤ 0.2
23,TISC,≤ 0.2
24,VDGL,≤ 0.2
25,WMEG,≤ 0.2

row,Variant,one-hybrid fitness for binding NBS DNA
1,CYHG,≤ 0.2
2,HHFS,≤ 0.2
3,HLEL,≤ 0.2
4,DDLR,≤ 0.2
5,AHPL,≤ 0.2
6,QEEK,≤ 0.2
7,TLSI,≤ 0.2
8,NHVF,≤ 0.2
9,SSKG,≤ 0.2
10,NQTC,≤ 0.2
11,YLFG,≤ 0.2
12,AERW,≤ 0.2
13,ATET,≤ 0.2
14,CHDT,≤ 0.2
15,EGAY,≤ 0.2
16,AWQF,≤ 0.2
17,RFVN,≤ 0.2
18,IKCT,≤ 0.2
19,EPYS,≤ 0.2
20,PEYR,≤ 0.2
21,KDKS,≤ 0.2
22,KKKI,≤ 0.2
23,ARQC,≤ 0.2
24,NVQW,≤ 0.2
25,QTDK,≤ 0.2

row,Variant,one-hybrid fitness for binding NBS DNA
1,TSRR,0.253
2,FLTR,≤ 0.2
3,RRVY,0.301
4,AWPG,≤ 0.2
5,TRYA,≤ 0.2
6,TRIL,≤ 0.2
7,ERAK,≤ 0.2
8,NRCA,≤ 0.2
9,NYKS,≤ 0.2
10,SFEL,≤ 0.2
11,SVQG,≤ 0.2
12,CGSD,≤ 0.2
13,RIPF,≤ 0.2
14,KYRV,≤ 0.2
15,ADGR,≤ 0.2
16,TDRL,≤ 0.2
17,NFSF,≤ 0.2
18,GESY,≤ 0.2
19,SIIN,≤ 0.2
20,TMIC,≤ 0.2
21,CHNG,≤ 0.2
22,KAYT,≤ 0.2
23,GTGM,≤ 0.2
24,ASGL,≤ 0.2
25,HARE,≤ 0.2

row,Variant,one-hybrid fitness for binding NBS DNA
1,SDRW,≤ 0.2
2,DVKR,≤ 0.2
3,FPVV,≤ 0.2
4,RLRL,≤ 0.2
5,DWLG,≤ 0.2
6,WPLF,≤ 0.2
7,PAPS,≤ 0.2
8,GPKY,≤ 0.2
9,NDCC,≤ 0.2
10,LEAR,≤ 0.2
11,ARVC,≤ 0.2
12,RVEY,≤ 0.2
13,RYGR,0.432
14,EFGP,≤ 0.2
15,CRPN,≤ 0.2
16,RPNK,≤ 0.2
17,STVM,≤ 0.2
18,HCMT,≤ 0.2
19,HMKR,≤ 0.2
20,PCEH,≤ 0.2
21,SAIH,≤ 0.2
22,RRSI,0.213
23,YSKT,≤ 0.2
24,RTHY,0.208
25,YTKL,≤ 0.2

row,Variant,one-hybrid fitness for binding NBS DNA
1,GYAC,≤ 0.2
2,HRSC,≤ 0.2
3,NKYR,≤ 0.2
4,SQDI,≤ 0.2
5,PALP,≤ 0.2
6,TQPR,≤ 0.2
7,GIMC,≤ 0.2
8,LRMI,≤ 0.2
9,VCER,≤ 0.2
10,GTSN,≤ 0.2
11,NSQD,≤ 0.2
12,PIMH,≤ 0.2
13,HMRS,≤ 0.2
14,PLPT,≤ 0.2
15,CRDS,≤ 0.2
16,LTNA,≤ 0.2
17,AYCS,≤ 0.2
18,QVAD,≤ 0.2
19,WMLC,≤ 0.2
20,AHTA,≤ 0.2
21,KVML,≤ 0.2
22,AFFE,≤ 0.2
23,TMPR,≤ 0.2
24,ETTN,≤ 0.2
25,NKGM,≤ 0.2

row,Variant,one-hybrid fitness for binding NBS DNA
1,GSYA,≤ 0.2
2,WKHR,≤ 0.2
3,TVLS,≤ 0.2
4,AAMG,≤ 0.2
5,QVKD,≤ 0.2
6,RWIS,≤ 0.2
7,NWIG,≤ 0.2
8,HMCG,≤ 0.2
9,RKTF,≤ 0.2
10,APGT,≤ 0.2
11,TFRI,≤ 0.2
12,LTEV,≤ 0.2
13,AYAF,≤ 0.2
14,RTDE,≤ 0.2
15,PSMV,≤ 0.2
16,IAPK,≤ 0.2
17,HYVL,≤ 0.2
18,ALIA,≤ 0.2
19,SFPT,≤ 0.2
20,CYYT,≤ 0.2
